# Source: patent US20230159645A1
# B1: Reference PD-1 antibody pembrolizumab analog (antibody, human IgG4 S228P, kappa)
# heavy: QVQLVQSGVEVKKPGASVKVSCKASGYTFTNYYMYWVRQAPGQGLEWMGGINPSNGGTNFNEKFKNRVTLTTDSSTTTAYMELKSLQFDDTAVYYCARRDYRFDMGFDYWGQGTTVTVSSASTKGPSVFPLAPCSRSTSESTAALGCLVKDYFPEPVTVSWNSGALTSGVHTFPAVLQSSGLYSLSSVVTVPSSSLGTKTYTCNVDHKPSNTKVDKRV[not shown - human IgG4 Fc with S228P (EU numbers)]
# light: EIVLTQSPATLSLSPGERATLSCRASKGVSTSGYSYLHWYQQKPGQAPRLLIYLASYLESGVPARFSGSGSGTDFTLTISSLEPEDFAVYYCQHSRDLPLTFGGGTKVEIKRTVAAPSVFIFPPSDEQLKSGTASVVCLLNNFYPREAKVQWKVDNALQSGNSQESVTEQDSKDSTYSLSSTLTLSKADYEKHKVYACEVTHQGLSSPVTKSFNRGEC
# Target: human TGF-βRII (human), P37173
# Experiment: cell-based or functional assay
binder,measurement,value
B1,"HEK-BLUE-PD-1 TGF-β Reporter Assay, HEK-Blue TGF-β cells",> 100
same,"HEK-BLUE-PD-1 TGF-β Reporter Assay, HEK-Blue TGF-β-PD-1+ cells",> 100
